We go through 54 molecules from PubChem BioAssay AID1347073 (National Center for Advancing Translational Sciences (NCATS), 2019).

Screen size: about 45,000 compounds; about 200 (0.44%) were called active. Inconclusive results (about 7%) are left out. Calls come from the whole dose curve; as a rule, active = well fitted activation curve with a large enough effect; inconclusive = small, poorly fitted or top-dose-only effect; inactive = no such curve, though single readings can be large or run the other way. This is one part of the list.

A short description of the experiment: qHTS of TDP-43 Inhibitors: NCGC Sytravon Library Screen. Note: 0% is about no effect; nearly all actives have a fitted effect of over 55% in size. The note with it: yeast TDP-43 toxicity rescue, BacTiter-Glo growth, 24 h; series mostly up to 46.1 µM; growth rescue (activation): at the top concentration. The gist of the method:
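TDP-43-expressing yeast, pregrown in raffinose, seeded at OD600 0.02 in galactose medium with compound for 24 hr at 30 deg C. Growth read by BacTiter-Glo luminescence, so rescue of toxicity appears as activation.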
For the molecule `O=C1NCCCC1C(=O)N/N=C/c1cc([N+](=O)[O-])ccc1O` (centres undefined), the “growth rescue (activation)” value is inactive: 23.5%.
With `Cc1cc(NC(=O)COc2ccc(Cl)cc2Cl)n(-c2ccccc2)n1` the figure was inactive: 20%; with `CC(=O)c1cccc(-c2ccnc3c2CC(C(=O)Nc2ccc(Cl)cc2)O3)c1` (centres undefined), inactive: -3.81%; with `CCOC1=NN(c2ccc(Cl)cc2)C(=O)/C1=C\N(C)C`, inactive: 4.04%.
To `COc1ccc(/C(C)=N/Nc2nc3ccccc3nc2C)cc1` belongs inactive: -15.2%.
With `CC(=O)NC(Cc1ccccc1)C(=O)OCC(=O)c1ccc(F)cc1` (centres undefined) the figure was inactive: 2.05%; with `CCOc1ccc(S(=O)(=O)Nc2cccc(C)c2)c2cccnc12`, inactive: -7.82%.
With `O=C(NCCCNC(=O)c1cnccn1)c1ccc(Cl)cc1`, the “growth rescue (activation)” value is inactive: -3.81%.
With `CCCc1cc(=O)[nH]c(SCC(=O)Nc2cccc3ccccc23)n1` the figure was inactive: -6.19%; with `CCOc1cc(NC(=S)NCCCN2CCOCC2)c(OCC)cc1NC(=O)c1ccco1`, inactive: 5.46%.
To `COc1ccc(NC(=O)CN2C(=O)NC3(CCCCCC3)C2=O)cc1Cl` belongs inactive: -39.2%; to `CCOC(=O)c1cc(CC)sc1NC(=O)COC(=O)c1cc[n+]([O-])cc1`, inactive: 16.6%; to `Cc1ccc(S(=O)(=O)CCC(=O)Nc2sccc2C(N)=O)cc1`, inactive: 9.39%.
With `CCNC(=S)NNC(=O)c1ccc(S(=O)(=O)NCc2ccco2)cc1` the figure was inactive: 0.0624%; with `c1cc(Nc2cccc3nccnc23)c2nccnc2c1`, inactive: 23.5%; with `CC1CCCC(C)N1C(=O)COC(=O)c1ccccc1O` (centres undefined), inactive: 6.57%.
For `Cc1ccc(/C=C/C(=O)O)cc1S(=O)(=O)N(C)CCO`, the “growth rescue (activation)” value is inactive: -2.42%.
To `Nn1c(Cc2cccc3ccccc23)nnc1SCc1ccc(Cl)c(Cl)c1` belongs inactive: -2.54%; to `CN1CCN(c2nc3ccccn3c(=O)c2/C=C(\C#N)S(=O)(=O)c2ccccc2)CC1`, inactive: -3.81%; to `COc1cc(C(=O)NCc2ccc(-c3nc4ccccc4s3)cc2)cc(OC)c1OC`, inactive: -2.27%.
To `CCOC(=O)N1CCN(c2nc3c(C)cccn3c(=O)c2C=O)CC1` belongs inactive: 14.3%.
To `COc1cc(NC(=O)Cc2c(C(=O)O)n(C)c3ccccc23)cc(OC)c1OC` belongs inactive: 8.99%; to `CC[C@H](C)[C@H](NC(N)=O)C(=O)Nc1ccc(NC(C)=O)cc1`, inactive: 15.3%.
Consider `COc1ccccc1NC(=O)COC(=O)c1ccc(S(=O)(=O)N2CCCCCC2)cc1`, for which the “growth rescue (activation)” value is inactive: 4.15%.
To `O=C1/C(=C/c2cccc(O)c2)SC(=S)N1CC1CCCO1` (centres undefined) belongs inactive: -3.16%; to `CNC(=O)c1oc(-c2ccc(Cl)cc2)nc1C`, inactive: 22.6%.
Take `CCc1nc2ccc(C(=O)N(CC)CCN(C)C)cn2c1N(C)Cc1cccs1`: the “growth rescue (activation)” value is inactive: 0.89%.
To `CCc1cccc(N(CC(=O)NC2CCCCC2)C(=O)c2csnn2)c1` belongs inactive: -8.91%.
With `COc1ccc(-n2nc(C(=O)NCC(=O)NCCCN3CCC(C)CC3)c3ccccc3c2=O)cc1Cl` the figure was inactive: 4.87%; with `O=C(COC(=O)C1CCCCC1)Nc1ccc(N2CCCCC2)cc1`, inactive: -21.2%; with `CCCCN(C)Cc1c(C)[nH]c2ccccc2c1=O`, inactive: -11.7%.
For `CC(/C=N\NC(=O)c1cc(C)oc1C)=C\c1ccccc1`, the “growth rescue (activation)” value is inactive: 1.05%.
For `CN(C)S(=O)(=O)c1cccc(NC(=O)COC(=O)CCC(=O)c2ccc(F)cc2)c1`, the “growth rescue (activation)” value was inactive: 3.48%.
With `COc1cc(NC(=S)NCc2cccnc2)c(OC)cc1Cl` the figure was inactive: 4.12%; with `COc1cccc(N2CCN(C(=O)c3nc4nc(C)cc(C)n4n3)CC2)c1`, inactive: 0.791%; with `O=C(NCc1ccco1)C(c1ccncc1)N(C(=O)Cn1nnc2ccccc21)c1ccccc1` (centres undefined), inactive: 12.5%.
To `CCOC(=O)c1sc2nc(SCC(=O)NCc3ccco3)n(Cc3ccccc3)c(=O)c2c1C` belongs inactive: 1.4%; to `COc1ccccc1C(O)c1ncc(-c2cccc3ccccc23)[nH]1` (centres undefined), inactive: 0.924%.
With `COc1ccc(NCC(=O)NN=C2CCS(=O)(=O)c3ccc(F)cc32)cc1` the figure was inactive: -15.2%.
As for `COc1ccc(C(=O)Nc2cc(C)on2)cc1[N+](=O)[O-]`, the “growth rescue (activation)” value is inactive: 25.2%.
In the case of `CC1=CC(C)C2(CO)COC(c3ccc(O)cc3)C1C2C` (centres undefined), the “growth rescue (activation)” value was inactive: 2.64%.
With `OC(COC(c1ccc(Cl)cc1)c1ccc(Cl)cc1)CN1CCN(c2ccccn2)CC1` (centres undefined), the “growth rescue (activation)” value was inactive: 7.8%.
For the molecule `C=CCn1c(C(CCCC)CC(O)COCC(C)C)n[nH]c1=S` (centres undefined), the “growth rescue (activation)” value is inactive: 6.46%.
To `CC12CCC(=O)C=C1CCC1C2CCC2(C)C1CC[C@]2(O)C(=O)CO` (some centres undefined) belongs inactive: 15.4%.
With `CC(C(=O)O)N1C(=O)/C(=C/c2cccn2C)SC1=S` (centres undefined) the figure was inactive: 35.8%; with `O=C(/C=C/c1ccccc1)NC1CC2CCC1C2` (centres undefined), inactive: 4.67%.
To `Cc1ccc(N/N=C/c2ccc3c(c2)OCCO3)cc1Cl` belongs inactive: -5.84%.
In the case of `COc1cc(/C=N/NC(=O)CCNC(=O)c2ccccc2Cl)ccc1O`, the “growth rescue (activation)” value is inactive: -5.27%.
`O=C(CCC(=O)OCC(F)(F)C(F)F)Nc1ccc(F)cc1F`: the “growth rescue (activation)” value was inactive: 6.63%.
`O=C(c1cccc(Cl)c1)N1CCN(c2ncnc3c2cnn3-c2ccccc2)CC1`: the “growth rescue (activation)” value is inactive: 9.24%.
To `O=C(Nc1ccc(Cl)c(Cl)c1)N1CCC(N2CCCCC2)CC1` belongs inactive: 5.6%; to `COc1cccc(C(=O)Nc2ccc(S(=O)(=O)Nc3cc(C)nc(C)n3)cc2)c1`, inactive: 10.9%; to `CC(C)C(NC(=O)C1CCCCC1)C(=O)NC1=NCCS1` (centres undefined), inactive: 9.68%.
For `COc1ccccc1/C=C/C=NC1C(=O)N(c2ccccc2)[N+](C)=C1C` (centres undefined), the “growth rescue (activation)” value is inactive: -12.7%.
